Here are results for 22 variants from the supplement of paper PMC7125110.

± gives the standard error. Variants at the background level are over-represented here.

B1: glmS ribozyme (parent)
chain: AUAAAAGCGCCAGAACUACAGAAAUGUAGUUGACGAGGAGGAGGUUUAUCGAAUUUUCGGCGGAUGCCUCCAAA

The variants in this series derive from B1. Briefly: self-cleavage kobs at 10000 uM GlcN6P; higher = faster cleavage; RNA array. Conditions: with glucosamine-6-phosphate. An outline of the steps: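 The measurements used barcoded ribozyme variants on sequenced MiSeq chips, transcribed in situ by E. coli RNA polymerase and tracked at 37 °C with a hybridised Cy3 probe. Glucosamine-6-phosphate, 40 μM to 10 mM in HEPES/KCl/Mg(OAc)2 buffer, was flowed in while tiles were imaged over ~14 h. Baseline-normalised signals, also normalised to non-cleaving reference variants, gave per-tile medians that were fit to one- or two-exponential decays for kobs. kcat and KM resulted from weighted Michaelis–Menten fits across concentrations.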
Take G59U C61U A64G: the “self-cleavage kobs at 10000 uM GlcN6P” value is under 1e-05 s⁻¹.
On to C61A C68A, for which the “self-cleavage kobs at 10000 uM GlcN6P” value is under 1e-05 s⁻¹.
Next, U54A G62C C70G: under 1e-05 s⁻¹; C61U G63U C67U: under 1e-05 s⁻¹.
For the variant U49C U56G, the “self-cleavage kobs at 10000 uM GlcN6P” value was under 1e-05 s⁻¹.
On to U45C U65G C67A, for which the “self-cleavage kobs at 10000 uM GlcN6P” value was found to be 0.000786 ± 0.00016 s⁻¹.
Turning to G60U G66C, the “self-cleavage kobs at 10000 uM GlcN6P” value is under 1e-05 s⁻¹.
As to U49A U55A, the “self-cleavage kobs at 10000 uM GlcN6P” value came out at 2.26e-05 ± 9.3e-06 s⁻¹.
As for G43C A52G U65A, the figure is under 1e-05 s⁻¹; as for G43A G51U C67G C70G, under 1e-05 s⁻¹.
Next, A52C C68U C70U: 3.87e-05 ± 1.7e-05 s⁻¹; G43A U45C U46A A64U: under 1e-05 s⁻¹; C50U A53C U54G: under 1e-05 s⁻¹.
Next, U47A A53U C58A: 0.000151 ± 3e-05 s⁻¹.
On to U49G C61A, for which the “self-cleavage kobs at 10000 uM GlcN6P” value is under 1e-05 s⁻¹.
In the case of U46A C50A G59U, the “self-cleavage kobs at 10000 uM GlcN6P” value was under 1e-05 s⁻¹.
Next, G44C C50A G62A: under 1e-05 s⁻¹; G43U G51C U65G U69C: under 1e-05 s⁻¹; G59U C61A C67A: under 1e-05 s⁻¹.
Take G43A U57C G59U A64U: the “self-cleavage kobs at 10000 uM GlcN6P” value is under 1e-05 s⁻¹.
Next, U46A A48G: 3.66e-05 ± 1.3e-05 s⁻¹; U55C G59C C70G: under 1e-05 s⁻¹.
